This is one part of the list.
Legend:
Assay in all cases: glycan array binding signal (z-score within array); higher = stronger binding
Details in all cases: glycan notation: IUPAC condensed, linker removed; mutation: R74S
[1] = target: GlcNAc(a1-6)Gal(b1-4)GlcNAc
In short: (§1)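 Negative Z-scores can be read as non-binding. The Z-score is calculated within each array and then averaged across arrays of one protein sequence at different concentrations or buffers and across linkers. Arrays, 3228 in all, were curated from the Consortium for Functional Glycomics database and kept only where the protein sequence was available.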

[2] = target: GlcNAc(b1-2)Gal(b1-3)GalNAc
In short: as §1

[3] = target: GlcNAc(b1-2)Man(a1-3)[GlcNAc(b1-2)Man(a1-6)]Man(b1-4)GlcNAc(b1-4)GlcNAc
In short: as §1

[4] = target: GlcNAc(b1-2)Man(a1-3)[GlcNAc(b1-2)Man(a1-6)]Man(b1-4)GlcNAc(b1-4)[Fuc(a1-6)]GlcNAc
In short: as §1

[5] = target: GlcNAc(b1-2)Man(a1-3)[GlcNAc(b1-4)][GlcNAc(b1-2)Man(a1-6)]Man(b1-4)GlcNAc(b1-4)GlcNAc
In short: as §1

[6] = target: GlcNAc(b1-2)Man(a1-3)[GlcNAc(b1-4)][GlcNAc(b1-2)Man(a1-6)]Man(b1-4)GlcNAc(b1-4)[Fuc(a1-6)]GlcNAc
In short: as §1

[7] = target: GlcNAc(b1-2)[GlcNAc(b1-4)]Man(a1-3)[GlcNAc(b1-2)Man(a1-6)]Man(b1-4)GlcNAc(b1-4)GlcNAc
In short: as §1

[8] = target: GlcNAc(b1-2)[GlcNAc(b1-4)]Man(a1-3)[GlcNAc(b1-4)][GlcNAc(b1-2)Man(a1-6)]Man(b1-4)GlcNAc(b1-4)GlcNAc
In short: as §1

[9] = target: GlcNAc(b1-2)[GlcNAc(b1-4)]Man(a1-3)[GlcNAc(b1-4)][GlcNAc(b1-2)[GlcNAc(b1-6)]Man(a1-6)]Man(b1-4)GlcNAc(b1-4)GlcNAc
In short: as §1

[10] = target: GlcNAc(b1-2)[GlcNAc(b1-4)]Man(a1-3)[GlcNAc(b1-4)][GlcNAc(b1-2)[GlcNAc(b1-6)]Man(a1-6)]Man(b1-4)GlcNAc(b1-4)[Fuc(a1-6)]GlcNAc
In short: as §1

[11] = target: GlcNAc(b1-2)[GlcNAc(b1-6)]Man(a1-6)[GlcNAc(b1-2)Man(a1-3)]Man(b1-4)GlcNAc(b1-4)GlcNAc
In short: as §1

[12] = target: GlcNAc(b1-2)[GlcNAc(b1-6)]Man(a1-6)[GlcNAc(b1-2)Man(a1-3)]Man(b1-4)GlcNAc(b1-4)[Fuc(a1-6)]GlcNAc
In short: as §1

[13] = target: GlcNAc(b1-2)[GlcNAc(b1-6)]Man(a1-6)[GlcNAc(b1-4)][GlcNAc(b1-2)Man(a1-3)]Man(b1-4)GlcNAc(b1-4)GlcNAc
In short: as §1

GlcNAc(b1-3)Fuc = target: GlcNAc(b1-3)Fuc
In short: as §1

GlcNAc(b1-3)Gal = target: GlcNAc(b1-3)Gal
In short: as §1

[14] = target: GlcNAc(b1-3)Gal(b1-3)GalNAc
In short: as §1

GlcNAc(b1-3)Gal(b1-4)Glc = target: GlcNAc(b1-3)Gal(b1-4)Glc
In short: as §1

[15] = target: GlcNAc(b1-3)Gal(b1-4)GlcNAc
In short: as §1

[16] = target: GlcNAc(b1-3)Gal(b1-4)GlcNAc(b1-2)Man(a1-3)[GlcNAc(b1-3)Gal(b1-4)GlcNAc(b1-2)Man(a1-6)]Man(b1-4)GlcNAc(b1-4)GlcNAc
In short: as §1

[17] = target: GlcNAc(b1-3)Gal(b1-4)GlcNAc(b1-2)Man(a1-3)[GlcNAc(b1-3)Gal(b1-4)GlcNAc(b1-2)Man(a1-6)]Man(b1-4)GlcNAc(b1-4)[Fuc(a1-6)]GlcNAc
In short: as §1

[18] = target: GlcNAc(b1-3)Gal(b1-4)GlcNAc(b1-2)[GlcNAc(b1-3)Gal(b1-4)GlcNAc(b1-6)]Man(a1-6)[GlcNAc(b1-3)Gal(b1-4)GlcNAc(b1-2)Man(a1-3)]Man(b1-4)GlcNAc(b1-4)GlcNAc
In short: as §1

[19] = target: GlcNAc(b1-3)Gal(b1-4)GlcNAc(b1-3)Gal(b1-4)GlcNAc
In short: as §1

[20] = target: GlcNAc(b1-3)Gal(b1-4)GlcNAc(b1-3)Gal(b1-4)GlcNAc(b1-2)Man(a1-3)[GlcNAc(b1-3)Gal(b1-4)GlcNAc(b1-3)Gal(b1-4)GlcNAc(b1-2)Man(a1-6)]Man(b1-4)GlcNAc(b1-4)GlcNAc
In short: as §1

[21] = target: GlcNAc(b1-3)Gal(b1-4)GlcNAc(b1-3)Gal(b1-4)GlcNAc(b1-2)Man(a1-3)[GlcNAc(b1-3)Gal(b1-4)GlcNAc(b1-3)Gal(b1-4)GlcNAc(b1-2)Man(a1-6)]Man(b1-4)GlcNAc(b1-4)[Fuc(a1-6)]GlcNAc
In short: as §1

[22] = target: GlcNAc(b1-3)Gal(b1-4)GlcNAc(b1-3)Gal(b1-4)GlcNAc(b1-2)[GlcNAc(b1-3)Gal(b1-4)GlcNAc(b1-3)Gal(b1-4)GlcNAc(b1-6)]Man(a1-6)[GlcNAc(b1-3)Gal(b1-4)GlcNAc(b1-3)Gal(b1-4)GlcNAc(b1-2)Man(a1-3)]Man(b1-4)GlcNAc(b1-4)[Fuc(a1-6)]GlcNAc
In short: as §1

[23] = target: GlcNAc(b1-3)Gal(b1-4)GlcNAc(b1-3)Gal(b1-4)GlcNAc(b1-3)Gal(b1-4)GlcNAc(b1-2)Man(a1-3)[GlcNAc(b1-3)Gal(b1-4)GlcNAc(b1-3)Gal(b1-4)GlcNAc(b1-3)Gal(b1-4)GlcNAc(b1-2)Man(a1-6)]Man(b1-4)GlcNAc(b1-4)GlcNAc
In short: as §1

[24] = target: GlcNAc(b1-3)Gal(b1-4)GlcNAc(b1-3)Gal(b1-4)GlcNAc(b1-3)Gal(b1-4)GlcNAc(b1-2)Man(a1-3)[GlcNAc(b1-3)Gal(b1-4)GlcNAc(b1-3)Gal(b1-4)GlcNAc(b1-3)Gal(b1-4)GlcNAc(b1-2)Man(a1-6)]Man(b1-4)GlcNAc(b1-4)[Fuc(a1-6)]GlcNAc
In short: as §1

[25] = target: GlcNAc(b1-3)Gal(b1-4)GlcNAc(b1-3)Gal(b1-4)GlcNAc(b1-3)Gal(b1-4)GlcNAc(b1-2)[GlcNAc(b1-3)Gal(b1-4)GlcNAc(b1-3)Gal(b1-4)GlcNAc(b1-3)Gal(b1-4)GlcNAc(b1-6)]Man(a1-6)[GlcNAc(b1-3)Gal(b1-4)GlcNAc(b1-3)Gal(b1-4)GlcNAc(b1-3)Gal(b1-4)GlcNAc(b1-2)Man(a1-3)]Man(b1-4)GlcNAc(b1-4)[Fuc(a1-6)]GlcNAc
In short: as §1

[26] = target: GlcNAc(b1-3)Gal(b1-4)GlcNAc(b1-3)Gal(b1-4)GlcNAc(b1-3)Gal(b1-4)GlcNAc(b1-3)Gal(b1-4)GlcNAc(b1-2)Man(a1-3)[GlcNAc(b1-3)Gal(b1-4)GlcNAc(b1-3)Gal(b1-4)GlcNAc(b1-3)Gal(b1-4)GlcNAc(b1-3)Gal(b1-4)GlcNAc(b1-2)Man(a1-6)]Man(b1-4)GlcNAc(b1-4)GlcNAc
In short: as §1

[27] = target: GlcNAc(b1-3)Gal(b1-4)GlcNAc(b1-3)Gal(b1-4)GlcNAc(b1-3)Gal(b1-4)GlcNAc(b1-3)Gal(b1-4)GlcNAc(b1-2)Man(a1-3)[GlcNAc(b1-3)Gal(b1-4)GlcNAc(b1-3)Gal(b1-4)GlcNAc(b1-3)Gal(b1-4)GlcNAc(b1-3)Gal(b1-4)GlcNAc(b1-2)Man(a1-6)]Man(b1-4)GlcNAc(b1-4)[Fuc(a1-6)]GlcNAc
In short: as §1

[28] = target: GlcNAc(b1-3)Gal(b1-4)GlcNAc(b1-3)Gal(b1-4)GlcNAc(b1-3)Gal(b1-4)GlcNAc(b1-3)Gal(b1-4)GlcNAc(b1-2)[GlcNAc(b1-3)Gal(b1-4)GlcNAc(b1-3)Gal(b1-4)GlcNAc(b1-3)Gal(b1-4)GlcNAc(b1-3)Gal(b1-4)GlcNAc(b1-6)]Man(a1-6)[GlcNAc(b1-3)Gal(b1-4)GlcNAc(b1-3)Gal(b1-4)GlcNAc(b1-3)Gal(b1-4)GlcNAc(b1-3)Gal(b1-4)GlcNAc(b1-2)Man(a1-3)]Man(b1-4)GlcNAc(b1-4)[Fuc(a1-6)]GlcNAc
In short: as §1

[29] = target: GlcNAc(b1-3)Gal(b1-4)GlcNAc(b1-3)Gal(b1-4)GlcNAc(b1-3)GalNAc
In short: as §1

[30] = target: GlcNAc(b1-3)Gal(b1-4)GlcNAc(b1-3)GalNAc
In short: as §1

[31] = target: GlcNAc(b1-3)Gal(b1-4)GlcNAc(b1-3)[GlcNAc(b1-3)Gal(b1-4)GlcNAc(b1-3)]GalNAc
In short: as §1

[32] = target: GlcNAc(b1-3)Gal(b1-4)GlcNAc(b1-6)[Gal(b1-3)]GalNAc
In short: as §1

[33] = target: GlcNAc(b1-3)Gal(b1-4)GlcNAc(b1-6)[GlcNAc(b1-3)Gal(b1-3)]GalNAc
In short: as §1

[34] = target: GlcNAc(b1-3)Gal(b1-4)GlcNAc(b1-6)[GlcNAc(b1-3)]Gal(b1-4)GlcNAc
In short: as §1

GlcNAc(b1-3)GalNAc = target: GlcNAc(b1-3)GalNAc
In short: as §1

GlcNAc(b1-3)Man = target: GlcNAc(b1-3)Man
In short: as §1

[35] = target: GlcNAc(b1-3)[GlcNAc(b1-4)][GlcNAc(b1-6)]GlcNAc
In short: as §1

[36] = target: GlcNAc(b1-3)[GlcNAc(b1-6)]Gal(b1-4)GlcNAc
In short: as §1

[37] = target: GlcNAc(b1-3)[GlcNAc(b1-6)]GalNAc
In short: as §1

[38] = target: GlcNAc(b1-4)Gal(b1-4)GlcNAc
In short: as §1

GlcNAc(b1-4)GlcNAc = target: GlcNAc(b1-4)GlcNAc
In short: as §1

[39] = target: GlcNAc(b1-4)GlcNAc(b1-4)GlcNAc
In short: as §1

B1: Gal 7 (Homo sapiens) (protein)
chain: MSNVPHKSSLPEGIRPGTVLRIRGLVPPNASRFHVNLLCGEEGGSDAALHFNPRLDTSEVVFNSKEGGSWGREESGPGVPFGRGQPFEVLIIASDDGFKAVVGDAQYHHFRHRLPLARVRLVEVGGDVQLDSVRIF
glycan array binding signal (z-score) [1]: -0.306
glycan array binding signal (z-score) [2]: -0.255
glycan array binding signal (z-score) [3]: -0.145
glycan array binding signal (z-score) [4]: -0.071
glycan array binding signal (z-score) [5]: -0.02
glycan array binding signal (z-score) [6]: -0.203
glycan array binding signal (z-score) [7]: -0.253
glycan array binding signal (z-score) [8]: -0.174
glycan array binding signal (z-score) [9]: -0.243
glycan array binding signal (z-score) [10]: -0.168
glycan array binding signal (z-score) [11]: 0.231
glycan array binding signal (z-score) [12]: 0.961
glycan array binding signal (z-score) [13]: -0.37
glycan array binding signal (z-score) (GlcNAc(b1-3)Fuc): 0.85
glycan array binding signal (z-score) (GlcNAc(b1-3)Gal): -0.488
glycan array binding signal (z-score) [14]: -0.21
glycan array binding signal (z-score) (GlcNAc(b1-3)Gal(b1-4)Glc): -0.494
glycan array binding signal (z-score) [15]: -0.635
glycan array binding signal (z-score) [16]: 0.44
glycan array binding signal (z-score) [17]: 1.15
glycan array binding signal (z-score) [18]: -0.075
glycan array binding signal (z-score) [19]: -0.579
glycan array binding signal (z-score) [20]: 1.29
glycan array binding signal (z-score) [21]: 1.85
glycan array binding signal (z-score) [22]: 1.67
glycan array binding signal (z-score) [23]: 0.875
glycan array binding signal (z-score) [24]: 4.14
glycan array binding signal (z-score) [25]: 1.9
glycan array binding signal (z-score) [26]: 2.63
glycan array binding signal (z-score) [27]: 2.87
glycan array binding signal (z-score) [28]: 1.16
glycan array binding signal (z-score) [29]: -0.456
glycan array binding signal (z-score) [30]: -0.547
glycan array binding signal (z-score) [31]: -0.2
glycan array binding signal (z-score) [32]: -0.173
glycan array binding signal (z-score) [33]: -0.377
glycan array binding signal (z-score) [34]: -0.652
glycan array binding signal (z-score) (GlcNAc(b1-3)GalNAc): -0.436
glycan array binding signal (z-score) (GlcNAc(b1-3)Man): -0.595
glycan array binding signal (z-score) [35]: -0.573
glycan array binding signal (z-score) [36]: -0.632
glycan array binding signal (z-score) [37]: -0.503
glycan array binding signal (z-score) [38]: -0.365
glycan array binding signal (z-score) (GlcNAc(b1-4)GlcNAc): -0.382
glycan array binding signal (z-score) [39]: -0.549

Reference: the supplement of paper PMC8728848
